# Source: publication PMC4336329 (PLoS ONE, 2015)
# Hit rate of the full screen: of about 310,000 compounds, about 2,200 (0.71%) showed an effect of 50% or more. Effects have a minus sign here. Some of the results follow.
# Target: human ether-à-go-go-related gene (hERG) potassium channel (human, UniProt Q12809)
# Assay: primary screen, population patch clamp on CHO cells stably expressing hERG
# human ether-à-go-go-related gene (hERG) potassium channel, sequence (Q12809 whole entry, looked up): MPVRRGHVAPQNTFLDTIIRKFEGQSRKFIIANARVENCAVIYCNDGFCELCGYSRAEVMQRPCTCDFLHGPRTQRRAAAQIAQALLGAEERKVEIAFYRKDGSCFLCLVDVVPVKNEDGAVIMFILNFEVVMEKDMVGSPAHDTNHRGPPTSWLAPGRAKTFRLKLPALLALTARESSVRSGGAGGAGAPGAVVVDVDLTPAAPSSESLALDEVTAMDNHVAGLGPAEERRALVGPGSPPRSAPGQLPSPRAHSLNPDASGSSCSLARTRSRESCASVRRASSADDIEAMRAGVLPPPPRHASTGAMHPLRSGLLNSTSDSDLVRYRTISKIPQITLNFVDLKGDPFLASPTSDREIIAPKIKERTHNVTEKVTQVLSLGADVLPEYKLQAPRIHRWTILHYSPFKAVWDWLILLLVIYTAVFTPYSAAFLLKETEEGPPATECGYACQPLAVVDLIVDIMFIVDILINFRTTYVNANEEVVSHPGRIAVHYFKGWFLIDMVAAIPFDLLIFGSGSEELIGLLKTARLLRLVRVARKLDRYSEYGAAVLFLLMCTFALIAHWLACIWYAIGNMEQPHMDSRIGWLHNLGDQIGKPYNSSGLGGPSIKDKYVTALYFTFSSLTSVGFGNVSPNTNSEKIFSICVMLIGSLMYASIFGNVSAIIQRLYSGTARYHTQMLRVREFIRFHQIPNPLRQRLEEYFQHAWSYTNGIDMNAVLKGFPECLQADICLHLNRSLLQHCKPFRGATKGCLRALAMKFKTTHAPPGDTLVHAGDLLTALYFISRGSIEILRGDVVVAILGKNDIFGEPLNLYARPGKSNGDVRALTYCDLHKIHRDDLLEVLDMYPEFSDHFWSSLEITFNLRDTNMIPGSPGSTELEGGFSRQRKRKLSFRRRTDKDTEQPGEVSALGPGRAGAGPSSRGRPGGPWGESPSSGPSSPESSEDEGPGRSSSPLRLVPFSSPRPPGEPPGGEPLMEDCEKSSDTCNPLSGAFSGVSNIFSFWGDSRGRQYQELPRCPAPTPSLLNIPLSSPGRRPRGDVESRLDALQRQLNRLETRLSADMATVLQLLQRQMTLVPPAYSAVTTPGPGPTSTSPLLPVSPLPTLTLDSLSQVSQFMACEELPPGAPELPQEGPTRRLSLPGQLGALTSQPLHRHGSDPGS
row,SMILES,"hERG current change (%, negative = inhibition) at 1uM"
1,CC(=O)Oc1ccccc1C1OC(=O)c2ccccc2N1C(C)=O (stereo not shown),10.7%
2,COc1ccccc1N1CCN(CC(=O)NCCc2ccc(S(N)(=O)=O)cc2)CC1,6.5%
3,O=C(N/N=C/c1ccc(N2CCCCC2)o1)c1ccccc1[N+](=O)[O-],16.3%
4,Cc1ccc(C(=O)Oc2ccccc2C(=O)N2CCOCC2)cc1,8.54%
5,O=C(c1ccc(CS(=O)c2ccccc2Cl)o1)N1CCOCC1 (stereo not shown),5.28%
6,CC(C)(C)c1ccc(S(=O)(=O)Nc2ccc3c(c2)COC3=O)cc1,12.8%
7,Cc1nc2scc(C)n2c(=O)c1S(=O)(=O)N1CCN(c2cccc(C(F)(F)F)c2)CC1,9.55%
8,O=C1NC(=O)N(CCC2=CCCCC2)C(=O)/C1=C/c1cccs1,11.7%
9,CNC(=S)NNC(=O)c1cccn(Cc2cccc(C(F)(F)F)c2)c1=O,15.2%
10,Cc1ccc2nc(-c3ccncc3)c(NC3CCCC3)n2c1,-9.73%
11,Nc1cc(C(F)(F)F)ccc1OCC1CCCO1 (stereo not shown),8.02%
12,CCN(CC)C(=O)Cn1nnc(-c2ccc(S(C)(=O)=O)cc2)n1,15%
13,CCN(CC)CCN1C(=O)c2ccccc2NC1c1ccc(F)cc1 (stereo not shown),-30.5%
14,O=C(NCCNS(=O)(=O)c1ccccc1)N1CCOCC1,6.45%
15,CCOC(=O)C1(C)C=C(Nc2ccc(OC)cc2)C(=O)N1c1ccc(OC)cc1 (stereo not shown),12.3%
16,Cc1cc2cc(CCNC(=O)c3ccc(C)c([N+](=O)[O-])c3)c(=O)[nH]c2cc1C,8.12%
17,CN(Cc1ccc(F)cc1)C(=O)c1cccc(S(=O)(=O)NCc2ccccc2)c1,3.13%
18,Cc1csc(SCC(=O)Nc2sccc2C(N)=O)n1,12.5%
19,CC1CCN(C(=O)CSCC(=O)O)CC1,15.3%
20,O=[N+]([O-])c1ccccc1S(=O)(=O)N1CCSCC1,9.46%
21,COC(=O)c1c(C)c2c(C)cc3ccccn3c-2c1C(=O)OC,2.84%
22,CCC[N+](CC#CCO)(CC#Cc1ccccc1)CCC.[Br-],5.79%
23,C/C(=N\NC(=O)c1ccncc1)c1ccc(N2CCOCC2)cc1,3.84%

row,SMILES,"hERG current change (%, negative = inhibition) at 1uM"
1,O=C(NCC1CCOCC1)c1cc(COc2ccc(F)cc2F)on1,2.28%
2,O=C(NCc1ccccc1)N1CCC(n2cnc3cc(F)ccc32)CC1,-56.6%
3,N#C/C(C(=O)NCc1ccccc1)=C1/N=C(NC(=O)c2ccco2)c2ccccc21,14.6%
4,O=C(Nc1ccccc1)C1CCCN1S(=O)(=O)c1ccc(Br)cc1 (stereo not shown),15.4%
5,O=C(CSc1ccc(-c2ccc(F)cc2)nn1)NCC1CCCO1 (stereo not shown),11.2%
6,CS(=O)(=O)N1CCC(C(=O)NCc2ccc(F)cc2Cl)CC1,4.05%
7,Cc1noc(C)c1S(=O)(=O)N1CCN(c2ccccc2)CC1,13.4%
8,O=C(COC(=O)c1ccccc1F)Nc1cc(S(=O)(=O)N2CCOCC2)ccc1N1CCCC1,0.893%
9,CC1Cc2cc(C(=O)O)ccc2O1 (stereo not shown),0.102%
10,CCOc1cccc(C(=O)NC(=S)Nc2cccc(C)c2)c1,1.57%
11,Cc1ccc(Nc2nnc(SCC(=O)Nc3cccc(S(=O)(=O)NC4=NCCCCC4)c3)s2)c(C)c1,7.44%
12,O=C(N/N=C/c1cc2ccccc2nc1Cl)c1ccncc1,-3.13%
13,CCOc1ccc2[nH]c3c(N4CCN(C(=O)c5ccco5)CC4)ncnc3c2c1,-3.41%
14,O=C(c1ccco1)N1N=C2CCCCCC2C1(O)C(F)(F)F (stereo not shown),9.28%
15,COc1cc(C(=O)Nc2ccc3c(c2)C(=O)c2ccccc2C3=O)cc(OC)c1OC,-0.394%
16,COc1ccc(C2NC(=O)NC(C)=C2C(=O)OC2CCC(C)CC2)cc1 (stereo not shown),11.1%
17,CC(C)(C)C(=O)N(Cc1ccccc1)c1ccccn1,8.84%
18,CCOC(=O)CSc1nc(C)c(Oc2ccc(Cl)cc2Cl)c(=O)[nH]1,7.67%
19,CC(=O)c1ccc(OCCCC(=O)Nc2ccc(C)c(S(=O)(=O)N(C)C)c2)cc1,12.7%
20,CNc1ccc(C(=O)OCC(=O)Nc2ccnn2C(C)C)cc1[N+](=O)[O-],14.8%
21,N/C(=N\OC(=O)C1CCCCC1)c1cccc([N+](=O)[O-])c1,9.29%
22,COc1ccc(C(=O)Nc2cc3c(cc2N2CCOCC2)n(C)c(=O)n3C)cc1OC,11.8%
23,Cc1ccc(/C=N/Nc2cc(C)nc(NCc3ccccc3)n2)cc1,11.1%
